Assay [1] addresses T1, AKR1 (S. cerevisiae) (UniProt P39010).
T1 sequence: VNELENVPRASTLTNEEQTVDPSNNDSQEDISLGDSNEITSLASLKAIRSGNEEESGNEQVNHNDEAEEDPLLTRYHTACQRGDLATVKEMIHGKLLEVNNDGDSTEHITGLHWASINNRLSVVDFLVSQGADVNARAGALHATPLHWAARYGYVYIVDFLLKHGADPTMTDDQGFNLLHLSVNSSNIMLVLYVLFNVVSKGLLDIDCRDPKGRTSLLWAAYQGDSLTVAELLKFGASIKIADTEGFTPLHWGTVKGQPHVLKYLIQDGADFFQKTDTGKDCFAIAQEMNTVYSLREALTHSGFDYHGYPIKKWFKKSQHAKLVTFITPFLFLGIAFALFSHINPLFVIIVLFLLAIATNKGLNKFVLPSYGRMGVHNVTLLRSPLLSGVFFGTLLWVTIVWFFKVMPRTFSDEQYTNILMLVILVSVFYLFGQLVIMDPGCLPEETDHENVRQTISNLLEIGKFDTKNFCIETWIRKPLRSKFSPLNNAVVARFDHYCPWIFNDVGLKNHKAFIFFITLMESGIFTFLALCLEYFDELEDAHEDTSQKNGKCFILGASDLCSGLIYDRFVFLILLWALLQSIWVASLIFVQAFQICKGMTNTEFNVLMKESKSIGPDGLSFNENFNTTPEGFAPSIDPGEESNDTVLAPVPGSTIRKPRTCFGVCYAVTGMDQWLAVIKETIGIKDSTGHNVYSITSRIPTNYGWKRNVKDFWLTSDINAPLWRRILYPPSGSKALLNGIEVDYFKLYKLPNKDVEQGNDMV
Nature of the assay: two-hybrid; split-ubiquitin Dual membrane yeast-2-hybrid (Dualsystems Biotech), strain NMY51; AKR1 variants as bait in pBT3-STE or ankyrin repeats in pBT3-OST4, STE18 as prey in pPR3-N; growth on SD-LWHA + 1 mM 3-aminotriazole at 25°C, 48-60 hours.

Sequences of proteins named here, by UniProt entry; tags and fusion partners are left off. Residues count along the entry.
UniProt P18852, residues 2-110: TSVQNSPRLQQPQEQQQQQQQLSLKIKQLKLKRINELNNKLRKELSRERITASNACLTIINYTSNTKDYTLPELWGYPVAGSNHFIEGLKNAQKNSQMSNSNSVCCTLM

In assay [2] the target is T2, AKR1 ankyrin repeats (amino acids 2–311), anchored to the membrane (S. cerevisiae) (UniProt P39010).
T2 sequence: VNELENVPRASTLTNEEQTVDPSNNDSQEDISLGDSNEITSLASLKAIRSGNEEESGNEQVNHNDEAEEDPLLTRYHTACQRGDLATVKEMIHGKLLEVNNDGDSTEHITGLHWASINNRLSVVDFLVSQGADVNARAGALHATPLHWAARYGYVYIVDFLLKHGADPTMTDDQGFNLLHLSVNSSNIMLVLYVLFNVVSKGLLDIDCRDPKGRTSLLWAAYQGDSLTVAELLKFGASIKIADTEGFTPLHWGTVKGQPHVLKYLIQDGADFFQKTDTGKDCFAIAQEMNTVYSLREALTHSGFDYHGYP
The assay is described as above.

Assay [3] deals with T3, AKR1 C^500S (S. cerevisiae) (UniProt P39010).
T3 sequence: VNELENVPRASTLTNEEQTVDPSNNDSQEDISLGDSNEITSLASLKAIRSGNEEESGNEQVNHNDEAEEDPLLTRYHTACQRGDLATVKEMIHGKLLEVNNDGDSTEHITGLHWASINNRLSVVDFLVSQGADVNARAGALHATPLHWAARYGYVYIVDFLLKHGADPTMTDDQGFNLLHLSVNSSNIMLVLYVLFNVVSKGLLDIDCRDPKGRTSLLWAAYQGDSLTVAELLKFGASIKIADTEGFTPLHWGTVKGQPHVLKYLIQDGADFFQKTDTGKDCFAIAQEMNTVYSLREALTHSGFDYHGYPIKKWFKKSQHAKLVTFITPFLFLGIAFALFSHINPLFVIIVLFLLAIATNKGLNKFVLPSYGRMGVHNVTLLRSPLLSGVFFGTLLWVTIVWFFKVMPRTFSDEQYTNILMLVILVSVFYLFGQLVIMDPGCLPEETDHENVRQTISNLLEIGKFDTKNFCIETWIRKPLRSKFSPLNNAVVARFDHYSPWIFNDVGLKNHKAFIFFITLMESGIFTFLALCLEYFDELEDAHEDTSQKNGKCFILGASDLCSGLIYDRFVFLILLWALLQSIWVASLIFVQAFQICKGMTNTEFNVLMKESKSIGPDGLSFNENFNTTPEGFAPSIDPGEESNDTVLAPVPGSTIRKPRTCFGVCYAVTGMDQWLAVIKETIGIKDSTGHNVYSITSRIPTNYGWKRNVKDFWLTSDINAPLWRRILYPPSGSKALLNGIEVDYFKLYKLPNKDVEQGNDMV
The description is as above.

The target of assay [4] is T4, AKR1 ΔN (S. cerevisiae) (UniProt P39010).
T4 sequence: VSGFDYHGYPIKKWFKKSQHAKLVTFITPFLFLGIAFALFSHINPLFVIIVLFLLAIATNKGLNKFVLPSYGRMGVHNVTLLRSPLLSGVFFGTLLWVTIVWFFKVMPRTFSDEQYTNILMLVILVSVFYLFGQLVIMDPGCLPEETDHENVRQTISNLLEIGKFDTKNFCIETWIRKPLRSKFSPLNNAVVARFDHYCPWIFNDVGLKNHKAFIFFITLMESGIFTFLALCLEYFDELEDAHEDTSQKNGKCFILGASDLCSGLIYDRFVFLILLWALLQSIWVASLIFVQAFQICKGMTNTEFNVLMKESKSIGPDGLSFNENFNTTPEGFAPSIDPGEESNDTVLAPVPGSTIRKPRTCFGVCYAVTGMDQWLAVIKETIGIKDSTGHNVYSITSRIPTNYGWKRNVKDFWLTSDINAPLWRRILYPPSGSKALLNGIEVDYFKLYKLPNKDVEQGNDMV
The assay is described as above.

The target of assay [5] is T1, AKR1 (S. cerevisiae). In words: two-hybrid; split-ubiquitin Dual membrane yeast-2-hybrid, strain NMY51; AKR1 variants as bait in pBT3-STE against AKR1 variants as prey in pPR3-STE, pairwise; growth on -LWHA.
The target of assay [6] is T3, AKR1 C^500S (S. cerevisiae). The assay is described as above.
The target in assay [7] is T4, AKR1 ΔN (S. cerevisiae). The description is as above.

Drawing on article PMC3234281, this text covers binding for four molecules.

Results are given in words; binding and its absence hold for the method and conditions named. Some entries that bind do so weakly or less than the wild type.

In the case of STE18 (from UniProt P18852 2-110), the binding result is on record as “binds” in the assay with AKR1 (S. cerevisiae) [1], “binds” in assay [2], “binds” in assay [3] and “no binding” with AKR1 ΔN (S. cerevisiae) [4].

B1: AKR1 ΔN (domain or fragment, UniProt P39010)
chain: VSGFDYHGYPIKKWFKKSQHAKLVTFITPFLFLGIAFALFSHINPLFVIIVLFLLAIATNKGLNKFVLPSYGRMGVHNVTLLRSPLLSGVFFGTLLWVTIVWFFKVMPRTFSDEQYTNILMLVILVSVFYLFGQLVIMDPGCLPEETDHENVRQTISNLLEIGKFDTKNFCIETWIRKPLRSKFSPLNNAVVARFDHYCPWIFNDVGLKNHKAFIFFITLMESGIFTFLALCLEYFDELEDAHEDTSQKNGKCFILGASDLCSGLIYDRFVFLILLWALLQSIWVASLIFVQAFQICKGMTNTEFNVLMKESKSIGPDGLSFNENFNTTPEGFAPSIDPGEESNDTVLAPVPGSTIRKPRTCFGVCYAVTGMDQWLAVIKETIGIKDSTGHNVYSITSRIPTNYGWKRNVKDFWLTSDINAPLWRRILYPPSGSKALLNGIEVDYFKLYKLPNKDVEQGNDMV
In the case of B1, the binding entry (in the assay with AKR1 (S. cerevisiae) [5]; in assay [6]; in the assay with AKR1 ΔN (S. cerevisiae) [7]) was “no binding” in each case.

B2: AKR1 (enzyme, UniProt P39010 2-764)
chain: VNELENVPRASTLTNEEQTVDPSNNDSQEDISLGDSNEITSLASLKAIRSGNEEESGNEQVNHNDEAEEDPLLTRYHTACQRGDLATVKEMIHGKLLEVNNDGDSTEHITGLHWASINNRLSVVDFLVSQGADVNARAGALHATPLHWAARYGYVYIVDFLLKHGADPTMTDDQGFNLLHLSVNSSNIMLVLYVLFNVVSKGLLDIDCRDPKGRTSLLWAAYQGDSLTVAELLKFGASIKIADTEGFTPLHWGTVKGQPHVLKYLIQDGADFFQKTDTGKDCFAIAQEMNTVYSLREALTHSGFDYHGYPIKKWFKKSQHAKLVTFITPFLFLGIAFALFSHINPLFVIIVLFLLAIATNKGLNKFVLPSYGRMGVHNVTLLRSPLLSGVFFGTLLWVTIVWFFKVMPRTFSDEQYTNILMLVILVSVFYLFGQLVIMDPGCLPEETDHENVRQTISNLLEIGKFDTKNFCIETWIRKPLRSKFSPLNNAVVARFDHYCPWIFNDVGLKNHKAFIFFITLMESGIFTFLALCLEYFDELEDAHEDTSQKNGKCFILGASDLCSGLIYDRFVFLILLWALLQSIWVASLIFVQAFQICKGMTNTEFNVLMKESKSIGPDGLSFNENFNTTPEGFAPSIDPGEESNDTVLAPVPGSTIRKPRTCFGVCYAVTGMDQWLAVIKETIGIKDSTGHNVYSITSRIPTNYGWKRNVKDFWLTSDINAPLWRRILYPPSGSKALLNGIEVDYFKLYKLPNKDVEQGNDMV
For B2, the binding entry with AKR1 (S. cerevisiae) [5] is listed as “no binding”.

B3: AKR1 C^500S (enzyme, UniProt P39010 2-764)
chain: VNELENVPRASTLTNEEQTVDPSNNDSQEDISLGDSNEITSLASLKAIRSGNEEESGNEQVNHNDEAEEDPLLTRYHTACQRGDLATVKEMIHGKLLEVNNDGDSTEHITGLHWASINNRLSVVDFLVSQGADVNARAGALHATPLHWAARYGYVYIVDFLLKHGADPTMTDDQGFNLLHLSVNSSNIMLVLYVLFNVVSKGLLDIDCRDPKGRTSLLWAAYQGDSLTVAELLKFGASIKIADTEGFTPLHWGTVKGQPHVLKYLIQDGADFFQKTDTGKDCFAIAQEMNTVYSLREALTHSGFDYHGYPIKKWFKKSQHAKLVTFITPFLFLGIAFALFSHINPLFVIIVLFLLAIATNKGLNKFVLPSYGRMGVHNVTLLRSPLLSGVFFGTLLWVTIVWFFKVMPRTFSDEQYTNILMLVILVSVFYLFGQLVIMDPGCLPEETDHENVRQTISNLLEIGKFDTKNFCIETWIRKPLRSKFSPLNNAVVARFDHYSPWIFNDVGLKNHKAFIFFITLMESGIFTFLALCLEYFDELEDAHEDTSQKNGKCFILGASDLCSGLIYDRFVFLILLWALLQSIWVASLIFVQAFQICKGMTNTEFNVLMKESKSIGPDGLSFNENFNTTPEGFAPSIDPGEESNDTVLAPVPGSTIRKPRTCFGVCYAVTGMDQWLAVIKETIGIKDSTGHNVYSITSRIPTNYGWKRNVKDFWLTSDINAPLWRRILYPPSGSKALLNGIEVDYFKLYKLPNKDVEQGNDMV
For B3, the binding entry (with AKR1 (S. cerevisiae) [5]; in assay [6]) was “no binding” in each case.
